Molecular target: T1, Human G protein subunit β1 (human, UniProt P62873)
T1 construct: G protein subunit β1 (Gβ1), human; The chain of m2, written alone for the row of the two chains with each other; also called Gβ1; Gβ; source: High Five insect cells, co-infection with Gγ2; purified together with Gγ2 (Talon resin, PreScission digestion, Superdex 200)
Experiment: SEC; co-expressed and co-purified Gβ1 and Gγ2 on Superdex 200 10/300 in 20 mM HEPES pH 8.0, 150 mM KCl, 5 mM DTT, 1 mM EDTA, 0.2% DM
Conditions: both partners purified

T1 sequence (P62873 whole entry): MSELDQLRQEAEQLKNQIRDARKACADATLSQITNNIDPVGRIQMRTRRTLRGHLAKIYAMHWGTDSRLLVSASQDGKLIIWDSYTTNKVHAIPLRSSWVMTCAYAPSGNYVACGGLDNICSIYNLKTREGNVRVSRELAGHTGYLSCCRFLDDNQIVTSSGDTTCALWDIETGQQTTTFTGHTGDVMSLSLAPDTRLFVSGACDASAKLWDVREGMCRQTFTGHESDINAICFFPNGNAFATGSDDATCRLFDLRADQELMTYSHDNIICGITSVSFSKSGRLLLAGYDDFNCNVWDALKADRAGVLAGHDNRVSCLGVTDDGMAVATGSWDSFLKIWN

binding result: binds
B1: Human G protein subunit γ2 (natural protein)
chain: not shown
modifications: Gγ-linked geranylgeranyl lipid moiety (absent in the C68S mutant)
notes: G protein subunit γ2 (Gγ2), human; The chain of m2, written alone for the row of the two chains with each other; also called Gγ2; Gγ; source: High Five insect cells, co-infection with Gβ1; purified together with Gβ1 (Talon resin, PreScission digestion, Superdex 200)
